Measured values published in PMC12136788.
The other results are listed elsewhere or left out.

T1: UNK ZnF1-6 (called full-length) (human, UniProt Q9C0B0 30-357)
T1 sequence: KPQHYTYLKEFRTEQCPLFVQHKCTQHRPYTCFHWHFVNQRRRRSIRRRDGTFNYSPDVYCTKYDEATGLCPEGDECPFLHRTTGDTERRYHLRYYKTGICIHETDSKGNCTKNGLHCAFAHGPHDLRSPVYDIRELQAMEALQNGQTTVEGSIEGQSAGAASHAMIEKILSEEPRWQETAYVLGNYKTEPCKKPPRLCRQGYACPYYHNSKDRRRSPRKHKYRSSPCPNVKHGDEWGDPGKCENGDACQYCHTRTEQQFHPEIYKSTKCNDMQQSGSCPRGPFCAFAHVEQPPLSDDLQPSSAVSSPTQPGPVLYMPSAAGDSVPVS

B1: ENSG00000136451:be:win_2051|3pUTR|ENSG00000136451|bound_else_gene|NA|bound_elsewhere_windowed (ssRNA)
RNA: GGGAGUUCUACAGUCCGACGAUCUUGUCAUAAUAAAAUGCAUUUCAGAGAAUAUGCAUUUUACCUUUGGGAAUAUGUUAAUUUCAGGCAGCAUUCCCUAUGGGAAAGGUGAUACCAGCUCUGAUAUGCAAAGCAUAUGAUAAUCAACAGAGGAUUGAGCAUCA
B2: chr7:77627539:77627665:+|CDS|ENSG00000127947|unk|total|mutant (ssRNA)
RNA: GGGAGUUCUACAGUCCGACGAUCAAUAUUUCAACAGCAAGUGCCACAGUUUCUGCUGCCACCCGUACUGAAAGCAUUUCUACCCGGAAAGUAUUGCCAAUGUCCAUUGCCCGACAUAAUACCGCAGGAACAACACAUUCAGGUCAACAGAGGAUUGAGCAUCA
B3: ENSG00000064726:stop:overlap|stop_codon|ENSG00000064726|stop_codon|NA|stop_codon (ssRNA)
RNA: GGGAGUUCUACAGUCCGACGAUCUACCGGCUUUAGUUGUGAUGGGACAGCUAACACAUUCAGGGUCAUGUUCAAGGAACCCAUAGAGAUCCUGCCCAAUGUGUGCUACACAGCAUGUGCAACACUCAAAGGUCCAGAUUCCCACAACAGAGGAUUGAGCAUCA
B4: chr1:62648186:62648303:-|CDS|ENSG00000116641|unk|total|mutant (ssRNA)
RNA: GGGAGUUCUACAGUCCGACGAUCGAUGACCUUAAAAGACGUUCAAUGUCAACCGAUGAUACCCCAAGGGGCCGCUGGGCCUGCCGUAUCUUUGACUUGAAAAAUUCACUUCCUGAUGCUUUGCUUCCCAAUUUACUUGAUCGACAACAGAGGAUUGAGCAUCA
B5: chr19:40393765:40398556:-|three_prime_utr|ENSG00000105227|control|control|control (ssRNA)
RNA: GGGAGUUCUACAGUCCGACGAUCCCAGCCCAGGGCCCUCACCCACCUCGGAGAGGCGUCCCCACCAUCGGAUCCAGGCUUGCUAGGGGUCCUGAACCAGGCUACUUCGAACCAGGAAAGCCAGAUUCCAGCCUGAGUGCUGGCCAACAGAGGAUUGAGCAUCA
B6: chr7:77639488:77639589:+|3pUTR|ENSG00000127947|msi1|total|mutant (ssRNA)
RNA: GGGAGUUCUACAGUCCGACGAUCAGUAUUAUUGCCUUAAUGUCUCUUAACCCUGUUACACGCUGCUUGCCGACAUGUUAAUACCGUAAUACCUUUAUGAUAUAUUGAGUUUAAGGACUACUCUUUUUCUGUUUUAUCAUGUAUCAACAGAGGAUUGAGCAUCA
B7: chr2:159230815:159230918:+|CDS|ENSG00000115183|unk|total|mutant (ssRNA)
RNA: GGGAGUUCUACAGUCCGACGAUCAACCUGUUCUGUUUCUACCCUGAGUGCAAGUGUCCACAAUGGGGCACAAGUGAAGGAGCCCGAAGAAAGCAAGUGCCAAAUUCCAGUCCACUCUCAAGAGAACAGGAUAACUAAGACUGUCAACAGAGGAUUGAGCAUCA
B8: chr17:59607285:59607386:+|3pUTR|ENSG00000108406|unk|FALSE|unique (ssRNA)
RNA: GGGAGUUCUACAGUCCGACGAUCUAAAUCAAAGCUCAUCAGUUCCCAUAAAUGCAGUUGUCAAAGAAAAGAUUUGGUUGCCAUAGUCAUAAGCAAUGAUACAUGAAACCAAUGAAAGACAGUACAUGUAAUAAUAUUUUCCUCCAACAGAGGAUUGAGCAUCA
B9: chr12:85803847:85803948:-|3pUTR|ENSG00000198774|unk|total|mutant (ssRNA)
RNA: GGGAGUUCUACAGUCCGACGAUCCCAAACCCAUGUUCAUUCACUGAGUGAGGUACCGUGUGGGUUACAGAGAAAAUCAGUCACCGUGUUAUUUGUUUAUGUCCUAUCUACAAAAGUUGCAAUGAUGGAAUUUGGAACCCUUCUCAACAGAGGAUUGAGCAUCA
B10: chr13:20086215:20086316:+|3pUTR|ENSG00000121741|unk|total|mutant (ssRNA)
RNA: GGGAGUUCUACAGUCCGACGAUCUGGUUUCCGGAUACUUAACAAAUACAUUCAAAUUCUUUUUUUAUUAUUAUUUAUUUGAUCCGGUAUGUUUGUAACUUUUUACAUUACAGAAUAUGAAUGAGAAUGUGCCAUGUAUAAUUUCAACAGAGGAUUGAGCAUCA
B11: ENSG00000144224:stop:overlap|stop_codon|ENSG00000144224|stop_codon|NA|stop_codon (ssRNA)
RNA: GGGAGUUCUACAGUCCGACGAUCCUCAAGAUGAUGGUGAAGAUGAAAACAACACUUGGAAUGGAAAUUCCACUCAACAGAUGUAGUGUGACAAGUAUAAUAUGUGCAAUAAUCAUUGUUUCUCUUAUGAUUUAAUUCAACUAACAACAGAGGAUUGAGCAUCA
B12: chrX:101413019:101413185:+|CDS|ENSG00000126945|unk|total|mutant (ssRNA)
RNA: GGGAGUUCUACAGUCCGACGAUCGGAGCUCUUCUUAAAUUCUACUGCAGGAACAAGUGGGGGUGCUUACGAUCACAGCUAUGCCGAACUUUUUUUGAAUUCUACAGCAGGGGCAAGUGGUGGCGCUUAUGGCCGCCAAAUGAUCAACAGAGGAUUGAGCAUCA
B13: chr7:27141837:27142085:-|CDS|ENSG00000106004|control|control|control (ssRNA)
RNA: GGGAGUUCUACAGUCCGACGAUCGGAGCUGGAGAAGGAGUUCCACUUCAACCGUUACCUGACCCGCAGAAGGAGGAUUGAAAUAGCACAUGCUCUUUGCCUCUCCGAGAGACAAAUUAAAAUCUGGUUCCAAAACCGGAGAAUCAACAGAGGAUUGAGCAUCA
B14: chr2:159433012:159433119:-|CDS|ENSG00000123636|unk|total|mutant (ssRNA)
RNA: GGGAGUUCUACAGUCCGACGAUCGCACUUACUACCAAAACUAAAAUGCAGAGCAAGAUUAAUGAAAACAUUGCUGCUGCAAGCCGCACCCCUUUUUCCUCACCUGUAAAUCUGAGUACAAGUGGGAGAAGAACCCCUGGCAAUCAACAGAGGAUUGAGCAUCA
B15: chr6:52498635:52498743:-|3pUTR|ENSG00000065308|msi1|FALSE|unique (ssRNA)
RNA: GGGAGUUCUACAGUCCGACGAUCAAAGGGACACGGAUUGUGACAGUUUCACCCCAUUUGUUUCUAACCCCGCUGCCCAGGAUUAGGGUCUGUGGUGUGUUCUGUUUUGUUUUUGGUUUCUCCCUUGUGUCAGUUCUCUUCUGGCAACAGAGGAUUGAGCAUCA
B16: ENSG00000120539:stop:overlap|stop_codon|ENSG00000120539|stop_codon|NA|stop_codon (ssRNA)
RNA: GGGAGUUCUACAGUCCGACGAUCCCUCCUAUUUUGAAGCCAGGAAUACUGCUCAGCACCUGACUGUAUCUGGAUUUAGUCUGUAGCACAAAAAUUUUCCUUUUAGUCUAGCCUUGUGUUAUAGAAUGAACUUGCAUAAUUAUACAACAGAGGAUUGAGCAUCA
B17: chr4:41955281:41955382:+|3pUTR|ENSG00000109133|msi1|total|mutant (ssRNA)
RNA: GGGAGUUCUACAGUCCGACGAUCGCCGGGGGAGGAGUUGUGGGGGAAUAAUGUGCAUUUCAGUCUCAACGCACCGAUAAAUUCCGGGGAAUUGGAUGUAUUAUUCAACUUUGAUUUGGGUUGUAAAAUGUGUUAAAUCCUGUUCAACAGAGGAUUGAGCAUCA
B18: chr1:156243319:156244403:-|three_prime_utr|ENSG00000160781|control|control|control (ssRNA)
RNA: GGGAGUUCUACAGUCCGACGAUCACCAACAGGGGCUGAGGAGAGAGGGCACAGGAGAGAGGGCAGAGAAGAGGAGGGGUGUCUAGGGGGACUGGCAGAGUGUGAGAGGGACCGUGAGGGGGCUCUUGAUGGGAGUGGAAGAAGCAACAGAGGAUUGAGCAUCA
B19: chr8:18529670:18529771:-|3pUTR|ENSG00000156011|msi1|total|mutant (ssRNA)
RNA: GGGAGUUCUACAGUCCGACGAUCUAAAGCCAUGGAGUUUAUAAAGCCAAGUAACCAUUUGAUAUGGAUAAUAAUAUCUACUCCCGAGAGAGUAUAUAUAUGCACAUUGAUUUUUAAUGCUGUUAAGAUACUUUUGUAAAACUGCAACAGAGGAUUGAGCAUCA
B20: ENSG00000198589:be:win_2601|CDS|ENSG00000198589|bound_else_gene|NA|bound_elsewhere_windowed (ssRNA)
RNA: GGGAGUUCUACAGUCCGACGAUCAGAAUGGAUGCUUUCUCUCUGCUAUUUUAAUCCUAAGAAUUCAGAUGAGCAAAAGAUAACAGAAAUGGUAUACGCCAUAUUCAGAAUCCUGCUUUACCAUGCAGUCAAAUAUGAGUGGGGCAACAGAGGAUUGAGCAUCA
B21: chr21:30319405:30320035:-|CDS|ENSG00000197683|control|control|control (ssRNA)
RNA: GGGAGUUCUACAGUCCGACGAUCGAGGUAUGUGUCCAGCGGCUGUCGUCCACUGAGGCCGCUGCUCAAUAGUUACCAGCCCAUAGGAGACUGUGUGCCCAAUGCCUAUCGCCCCCAAUUCUGCUUGUCCAAGAGUUGCCAGCCCAACAGAGGAUUGAGCAUCA
B22: chr10:116062369:116062470:-|3pUTR|ENSG00000151892|msi1|total|mutant (ssRNA)
RNA: GGGAGUUCUACAGUCCGACGAUCCUUUUUUCACUUCAAAAUGUUUUCAAGGGAAAUUCAGCAGACACCCAACUGUAUUUAAUCCGUGAAAAGAUCUAUAAAGACUCUUACUUUGAAUAAACACAUUAAGUAAGUGUGUCAAAACAACAGAGGAUUGAGCAUCA

molecular target: T1, UNK ZnF1-6 (called full-length); assay: nsRBNS (natural sequence RNA bind-n-seq); RBNS binding buffer (assumed for nsRBNS): 25 mM Tris pH 7.5, 150 mM KCl, 3 mM MgCl2, 0.01% Triton X-100, 500 ug/ml BSA, 20 U/ml SUPERase-In, 4 C; UNK is unkempt and MSI1 is Musashi-1; names of the RNAs are library labels; protein concentration not given here; high values mean tight binding

Q: B1 was tested. Which binding signal did it give?
A: Its binding signal is 0.233 enrichment R.

Q: With B2 as the binder, how does the binding signal read?
A: The binding signal was 0.539 enrichment R.

Q: Which binding signal does the source give for B3 here?
A: The binding signal was 0.591 enrichment R.

Q: Which binding signal does the source give for B4 here?
A: Its binding signal is 0.524 enrichment R.

Q: Which binding signal does the source give for B5 here?
A: Its binding signal is 0.554 enrichment R.

Q: For B6, which binding signal is on record?
A: Its binding signal is 0.412 enrichment R.

Q: With B7 as the binder, how does the binding signal read?
A: Its binding signal is 0.586 enrichment R.

Q: How did the binding signal turn out when B8 was run?
A: The binding signal was 0.395 enrichment R.

Q: B9 was tested. Which binding signal did it give?
A: Its binding signal is 0.308 enrichment R.

Q: B10 was tested. Which binding signal did it give?
A: The binding signal was 1.28 enrichment R.

Q: How did the binding signal turn out when B11 was run?
A: The binding signal was 0.922 enrichment R.

Q: How did the binding signal turn out when B12 was run?
A: The binding signal was 1.01 enrichment R.

Q: Which binding signal does the source give for B13 here?
A: Its binding signal is 0.606 enrichment R.

Q: For B14, which binding signal is on record?
A: The binding signal was 0.494 enrichment R.

Q: How did the binding signal turn out when B15 was run?
A: The binding signal was 0.598 enrichment R.

Q: For B16, which binding signal is on record?
A: Its binding signal is 0.634 enrichment R.

Q: With B17 as the binder, how does the binding signal read?
A: The binding signal was 1.02 enrichment R.

Q: Which binding signal does the source give for B18 here?
A: The binding signal was 1.38 enrichment R.

Q: Which binding signal does the source give for B19 here?
A: Its binding signal is 0.644 enrichment R.

Q: Which binding signal does the source give for B20 here?
A: Its binding signal is 0.378 enrichment R.

Q: For B21, which binding signal is on record?
A: Its binding signal is 0.656 enrichment R.

Q: With B22 as the binder, how does the binding signal read?
A: Its binding signal is 0.321 enrichment R.
